{"source": "paper PMC8584774", "about": "“Assessment of the Contribution of a Thermodynamic and Mechanical Destabilization of Myosin-Binding Protein C Domain C2 to the Pathomechanism of Hypertrophic Cardiomyopathy-Causing Double Mutation MYBPC3^Δ25bp/D389V” (International Journal of Molecular Sciences, 2021)", "target": "T1, β-cardiac myosin (β-CM), synthetic thick filaments (Sus scrofa, UniProt P79293 1-1935; Q5EFJ2 1-150; Q8MHY0 1-166)", "T1 construct": "β-cardiac myosin, Sus scrofa, UniProt P79293 (first of the three entries printed for β-CM); β-cardiac myosin, Sus scrofa, UniProt Q5EFJ2 (second entry printed for β-CM); β-cardiac myosin, Sus scrofa, UniProt Q8MHY0 (third entry printed for β-CM); full-length β-CM assembled into synthetic thick filaments (20 mM HEPES pH 7.4, 75 mM NaCl, 2 mM MgCl2, 0.5 mM EDTA, 0.5 mM DTT, 30 min on ice); also called …", "T1 sequence (P79293 whole entry, chain 1 of 3)": "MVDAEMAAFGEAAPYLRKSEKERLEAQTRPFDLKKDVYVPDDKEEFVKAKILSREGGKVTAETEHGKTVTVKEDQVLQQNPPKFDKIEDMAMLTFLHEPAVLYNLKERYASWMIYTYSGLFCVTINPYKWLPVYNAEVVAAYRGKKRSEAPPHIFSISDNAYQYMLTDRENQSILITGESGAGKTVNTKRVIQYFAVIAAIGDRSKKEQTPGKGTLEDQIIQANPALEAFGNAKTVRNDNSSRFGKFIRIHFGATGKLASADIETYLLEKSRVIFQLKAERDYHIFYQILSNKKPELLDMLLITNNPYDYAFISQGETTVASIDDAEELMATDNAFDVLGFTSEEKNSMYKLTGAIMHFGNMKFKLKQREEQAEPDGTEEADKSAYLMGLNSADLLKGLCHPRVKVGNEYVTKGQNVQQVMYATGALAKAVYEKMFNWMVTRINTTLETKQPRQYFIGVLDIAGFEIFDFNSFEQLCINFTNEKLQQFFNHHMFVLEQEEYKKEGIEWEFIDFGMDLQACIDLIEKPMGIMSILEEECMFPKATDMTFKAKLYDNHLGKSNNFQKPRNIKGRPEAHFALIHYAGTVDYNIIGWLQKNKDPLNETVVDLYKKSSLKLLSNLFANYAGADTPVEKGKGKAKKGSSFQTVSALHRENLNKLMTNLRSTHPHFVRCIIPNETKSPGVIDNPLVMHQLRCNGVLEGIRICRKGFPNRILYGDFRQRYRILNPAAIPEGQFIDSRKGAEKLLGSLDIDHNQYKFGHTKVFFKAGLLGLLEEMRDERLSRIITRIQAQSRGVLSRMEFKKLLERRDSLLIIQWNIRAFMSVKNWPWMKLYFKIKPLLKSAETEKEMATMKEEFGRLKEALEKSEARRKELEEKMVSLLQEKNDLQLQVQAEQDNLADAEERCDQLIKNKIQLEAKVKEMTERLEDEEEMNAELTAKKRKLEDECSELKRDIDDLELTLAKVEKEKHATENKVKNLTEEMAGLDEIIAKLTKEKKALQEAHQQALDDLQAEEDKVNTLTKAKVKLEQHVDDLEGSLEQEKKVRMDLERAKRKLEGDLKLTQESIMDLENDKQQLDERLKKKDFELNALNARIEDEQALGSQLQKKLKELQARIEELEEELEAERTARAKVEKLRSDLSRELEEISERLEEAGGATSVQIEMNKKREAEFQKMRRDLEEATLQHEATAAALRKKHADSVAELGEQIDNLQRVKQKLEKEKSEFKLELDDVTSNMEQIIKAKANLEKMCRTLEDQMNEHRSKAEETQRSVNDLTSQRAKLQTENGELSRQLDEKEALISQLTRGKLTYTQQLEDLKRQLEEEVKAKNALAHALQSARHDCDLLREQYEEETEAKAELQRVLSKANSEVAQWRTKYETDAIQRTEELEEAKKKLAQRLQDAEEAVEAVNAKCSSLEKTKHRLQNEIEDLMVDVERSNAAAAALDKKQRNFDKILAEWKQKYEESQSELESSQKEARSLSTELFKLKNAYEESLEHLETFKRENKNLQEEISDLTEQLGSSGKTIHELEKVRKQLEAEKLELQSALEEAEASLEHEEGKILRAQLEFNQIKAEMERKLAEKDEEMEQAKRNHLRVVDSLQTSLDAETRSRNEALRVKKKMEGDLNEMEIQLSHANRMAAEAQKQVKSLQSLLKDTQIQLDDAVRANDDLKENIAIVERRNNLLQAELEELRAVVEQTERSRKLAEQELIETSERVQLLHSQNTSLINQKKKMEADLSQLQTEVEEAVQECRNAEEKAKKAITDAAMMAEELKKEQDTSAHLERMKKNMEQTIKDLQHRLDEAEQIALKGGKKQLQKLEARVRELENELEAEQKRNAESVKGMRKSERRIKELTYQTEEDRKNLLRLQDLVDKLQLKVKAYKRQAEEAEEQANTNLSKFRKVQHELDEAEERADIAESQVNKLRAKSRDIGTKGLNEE", "T1 sequence (chain, as listed by the source, chain 2 of 3)": "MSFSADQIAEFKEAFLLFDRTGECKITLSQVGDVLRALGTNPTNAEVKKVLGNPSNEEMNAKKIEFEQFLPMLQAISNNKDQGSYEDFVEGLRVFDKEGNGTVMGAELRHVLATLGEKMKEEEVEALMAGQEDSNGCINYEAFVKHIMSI", "T1 sequence (chain, as listed by the source, chain 3 of 3)": "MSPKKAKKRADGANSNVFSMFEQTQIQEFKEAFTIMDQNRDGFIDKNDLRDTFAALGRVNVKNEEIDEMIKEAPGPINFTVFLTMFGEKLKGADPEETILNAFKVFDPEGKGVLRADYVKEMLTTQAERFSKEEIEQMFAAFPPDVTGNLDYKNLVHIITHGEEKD", "test": "co-sedimentation; high-speed cosedimentation; 2.5 µM β-CM as synthetic thick filaments with 0–30 µM C0–C2 or C2; 20 mM HEPES pH 7.4, 75 mM NaCl, 2 mM MgCl2, 0.5 mM EDTA, 0.5 mM DTT; 30 min at room temperature; pellet fractions by SDS-PAGE against a protein standard range; quadratic fit", "conditions": "both partners purified", "data": [{"binder": "MyBPC C0–C2 D389V (domain or fragment, D389V made by site-directed whole plasmid mutagenesis; the variant occurs in human carriers; also called construct C0–C2 D389V; source: E. coli Rosetta(DE3)pLysS, purified (Ni-NTA, HiTrap SP cation exchange)) not shown", "values": [{"measurement": "Kd", "result": "14.8 ± 7.7", "unit": "µM"}]}]}
